Measured values as given in article PMC9911399, “Two distinct binding modes provide the RNA-binding protein RbFox with extraordinary sequence specificity”.
Where a chain is given by its changes, count along the chain named. Some of the results follow.

T1: RBFOX1 RRM (Homo sapiens, UniProt Q9NWB1 109-208)
T1 sequence: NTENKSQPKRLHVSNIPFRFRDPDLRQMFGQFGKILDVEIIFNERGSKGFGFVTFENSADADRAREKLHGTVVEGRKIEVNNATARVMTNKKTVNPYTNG

B1: UAAGUGC (DNA:RNA)
RNA: GGGAGACCGGAAUUCAGAUUGUCCUAAGUGCUUAAAUCCCGUCGUAGCCACCA
DNA 1: CAATCTGAATTCCGGTCTCCC
DNA 2: TGGTGGCTACGACGGGATT
B2: ACGCUAU (DNA:RNA)
RNA: B1 RNA with U25A, A26C, A27G, G28C, G30A, C31U
DNA 1: CAATCTGAATTCCGGTCTCCC
DNA 2: TGGTGGCTACGACGGGATT
B3: CUUGAAC (DNA:RNA)
RNA: B1 RNA with U25C, A26U, A27U, U29A, G30A
DNA 1: CAATCTGAATTCCGGTCTCCC
DNA 2: TGGTGGCTACGACGGGATT
B4: UGUUAUA (DNA:RNA)
RNA: B1 RNA with A26G, A27U, G28U, U29A, G30U, C31A
DNA 1: CAATCTGAATTCCGGTCTCCC
DNA 2: TGGTGGCTACGACGGGATT
B5: CCGAAAC (DNA:RNA)
RNA: B1 RNA with U25C, A26C, A27G, G28A, U29A, G30A
DNA 1: CAATCTGAATTCCGGTCTCCC
DNA 2: TGGTGGCTACGACGGGATT
B6: GGACCUA (DNA:RNA)
RNA: B1 RNA with U25G, A26G, G28C, U29C, G30U, C31A
DNA 1: CAATCTGAATTCCGGTCTCCC
DNA 2: TGGTGGCTACGACGGGATT
B7: CGUCGCA (DNA:RNA)
RNA: GGGAGACCGGAAUUCAGAUUGUCCCGUCGCAUUAAAUCCCGUCGUAGCCACCA
DNA 1: CAATCTGAATTCCGGTCTCCC
DNA 2: TGGTGGCTACGACGGGATT
B8: GAUCCGU (DNA:RNA)
RNA: B7 RNA with C25G, G26A, G29C, C30G, A31U
DNA 1: CAATCTGAATTCCGGTCTCCC
DNA 2: TGGTGGCTACGACGGGATT
B9: AGCCUAA (DNA:RNA)
RNA: B7 RNA with C25A, U27C, G29U, C30A
DNA 1: CAATCTGAATTCCGGTCTCCC
DNA 2: TGGTGGCTACGACGGGATT
B10: GGCGUGG (DNA:RNA)
RNA: B1 RNA with U25G, A26G, A27C, C31G
DNA 1: CAATCTGAATTCCGGTCTCCC
DNA 2: TGGTGGCTACGACGGGATT
B11: AACUCAC (DNA:RNA)
RNA: B1 RNA with U25A, A27C, G28U, U29C, G30A
DNA 1: CAATCTGAATTCCGGTCTCCC
DNA 2: TGGTGGCTACGACGGGATT
B12: CAUGUGU (DNA:RNA)
RNA: B1 RNA with U25C, A27U, C31U
DNA 1: CAATCTGAATTCCGGTCTCCC
DNA 2: TGGTGGCTACGACGGGATT
B13: CCCCUUC (DNA:RNA)
RNA: B7 RNA with G26C, U27C, G29U, C30U, A31C
DNA 1: CAATCTGAATTCCGGTCTCCC
DNA 2: TGGTGGCTACGACGGGATT
B14: UUUAGGA (DNA:RNA)
RNA: B7 RNA with C25U, G26U, C28A, C30G
DNA 1: CAATCTGAATTCCGGTCTCCC
DNA 2: TGGTGGCTACGACGGGATT
B15: CUGGCCU (DNA:RNA)
RNA: B7 RNA with G26U, U27G, C28G, G29C, A31U
DNA 1: CAATCTGAATTCCGGTCTCCC
DNA 2: TGGTGGCTACGACGGGATT
B16: AAAUUGC (DNA:RNA)
RNA: B1 RNA with U25A, G28U
DNA 1: CAATCTGAATTCCGGTCTCCC
DNA 2: TGGTGGCTACGACGGGATT
B17: AUAGUCG (DNA:RNA)
RNA: B1 RNA with U25A, A26U, G30C, C31G
DNA 1: CAATCTGAATTCCGGTCTCCC
DNA 2: TGGTGGCTACGACGGGATT
B18: AUGGCCC (DNA:RNA)
RNA: B1 RNA with U25A, A26U, A27G, U29C, G30C
DNA 1: CAATCTGAATTCCGGTCTCCC
DNA 2: TGGTGGCTACGACGGGATT
B19: UGUCCAA (DNA:RNA)
RNA: B7 RNA with C25U, G29C, C30A
DNA 1: CAATCTGAATTCCGGTCTCCC
DNA 2: TGGTGGCTACGACGGGATT
B20: UAGACCA (DNA:RNA)
RNA: B7 RNA with C25U, G26A, U27G, C28A, G29C
DNA 1: CAATCTGAATTCCGGTCTCCC
DNA 2: TGGTGGCTACGACGGGATT
B21: AUUCGUC (DNA:RNA)
RNA: B7 RNA with C25A, G26U, C30U, A31C
DNA 1: CAATCTGAATTCCGGTCTCCC
DNA 2: TGGTGGCTACGACGGGATT
B22: GUGACGA (DNA:RNA)
RNA: B7 RNA with C25G, G26U, U27G, C28A, G29C, C30G
DNA 1: CAATCTGAATTCCGGTCTCCC
DNA 2: TGGTGGCTACGACGGGATT
B23: GUUAACA (DNA:RNA)
RNA: B7 RNA with C25G, G26U, C28A, G29A
DNA 1: CAATCTGAATTCCGGTCTCCC
DNA 2: TGGTGGCTACGACGGGATT
B24: UGAUUUC (DNA:RNA)
RNA: B1 RNA with A26G, G28U, G30U
DNA 1: CAATCTGAATTCCGGTCTCCC
DNA 2: TGGTGGCTACGACGGGATT
B25: AGCCGAG (DNA:RNA)
RNA: B7 RNA with C25A, U27C, C30A, A31G
DNA 1: CAATCTGAATTCCGGTCTCCC
DNA 2: TGGTGGCTACGACGGGATT
B26: AAGAGCU (DNA:RNA)
RNA: B7 RNA with C25A, G26A, U27G, C28A, A31U
DNA 1: CAATCTGAATTCCGGTCTCCC
DNA 2: TGGTGGCTACGACGGGATT
B27: UAACUCG (DNA:RNA)
RNA: B1 RNA with G28C, G30C, C31G
DNA 1: CAATCTGAATTCCGGTCTCCC
DNA 2: TGGTGGCTACGACGGGATT
B28: CAUGUUC (DNA:RNA)
RNA: B1 RNA with U25C, A27U, G30U
DNA 1: CAATCTGAATTCCGGTCTCCC
DNA 2: TGGTGGCTACGACGGGATT
B29: UGCCCCA (DNA:RNA)
RNA: B7 RNA with C25U, U27C, G29C
DNA 1: CAATCTGAATTCCGGTCTCCC
DNA 2: TGGTGGCTACGACGGGATT
B30: UAAAACC (DNA:RNA)
RNA: B1 RNA with G28A, U29A, G30C
DNA 1: CAATCTGAATTCCGGTCTCCC
DNA 2: TGGTGGCTACGACGGGATT
B31: UCGUACA (DNA:RNA)
RNA: B7 RNA with C25U, G26C, U27G, C28U, G29A
DNA 1: CAATCTGAATTCCGGTCTCCC
DNA 2: TGGTGGCTACGACGGGATT

Target: T1, RBFOX1 RRM
Assay: EMSA; HiTS-Eq, 1 nM pool, 10 min; buffer printed only for the single-RNA assays: 10 mM Tris pH 7.5, 150 mM NaCl, 3.4 mM EDTA, 0.001% NP-40, 30 C
Conditions: tags: His6 N-terminal (pET28a); label: 5' 32P
Method in brief: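 Purified wild-type or mutant RbFox RRM at increasing concentrations was equilibrated with 1 nM of 5′-radiolabelled RNA carrying 7 randomized nucleotides for 10 min in 50 µL. Unbound RNA was separated by 8% native PAGE and sequenced. Relative association constants came from read-count changes of each RNA species compared with the control reaction, normalised to the cognate motif.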

Row | Binder | binding signal
1 | B1 | 0.0197 KA relative to UGCAUGU
2 | B2 | 0.00415 KA relative to UGCAUGU
3 | B3 | 0.0099 KA relative to UGCAUGU
4 | B4 | 0.00576 KA relative to UGCAUGU
5 | B5 | 0.00527 KA relative to UGCAUGU
6 | B6 | 0.0035 KA relative to UGCAUGU
7 | B7 | 0.00976 KA relative to UGCAUGU
8 | B8 | 0.0111 KA relative to UGCAUGU
9 | B9 | 0.00191 KA relative to UGCAUGU
10 | B10 | 0.02 KA relative to UGCAUGU
11 | B11 | 0.00215 KA relative to UGCAUGU
12 | B12 | 0.0132 KA relative to UGCAUGU
13 | B13 | 0.00251 KA relative to UGCAUGU
14 | B14 | 0.00404 KA relative to UGCAUGU
15 | B15 | 0.0207 KA relative to UGCAUGU
16 | B16 | 0.00989 KA relative to UGCAUGU

Row | Binder | binding signal
17 | B17 | 0.0114 KA relative to UGCAUGU
18 | B18 | 0.00745 KA relative to UGCAUGU
19 | B19 | 0.00625 KA relative to UGCAUGU
20 | B20 | 0.00812 KA relative to UGCAUGU
21 | B21 | 0.00869 KA relative to UGCAUGU
22 | B22 | 0.0199 KA relative to UGCAUGU
23 | B23 | 0.00289 KA relative to UGCAUGU
24 | B24 | 0.0164 KA relative to UGCAUGU
25 | B25 | 0.0126 KA relative to UGCAUGU
26 | B26 | 0.00506 KA relative to UGCAUGU
27 | B27 | 0.0117 KA relative to UGCAUGU
28 | B28 | 0.00667 KA relative to UGCAUGU
29 | B29 | 0.00485 KA relative to UGCAUGU
30 | B30 | 0.00054 KA relative to UGCAUGU
31 | B31 | 0.00388 KA relative to UGCAUGU
